Article PMC5491523
No constants are given. Whether binding was seen depends on the method and setting. In cells and extracts the contact can be indirect. Some results given as binding are weak or reduced against the parent protein; the word gives no strength. For some of these results: Tags and fused reporters may be left off the sequences shown.

Chains of the proteins cited; added tags and fusions are not shown. Lines headed by an entry give the natural chain unless they say otherwise; changes in a name come on top.
UniProt Q8TDI8: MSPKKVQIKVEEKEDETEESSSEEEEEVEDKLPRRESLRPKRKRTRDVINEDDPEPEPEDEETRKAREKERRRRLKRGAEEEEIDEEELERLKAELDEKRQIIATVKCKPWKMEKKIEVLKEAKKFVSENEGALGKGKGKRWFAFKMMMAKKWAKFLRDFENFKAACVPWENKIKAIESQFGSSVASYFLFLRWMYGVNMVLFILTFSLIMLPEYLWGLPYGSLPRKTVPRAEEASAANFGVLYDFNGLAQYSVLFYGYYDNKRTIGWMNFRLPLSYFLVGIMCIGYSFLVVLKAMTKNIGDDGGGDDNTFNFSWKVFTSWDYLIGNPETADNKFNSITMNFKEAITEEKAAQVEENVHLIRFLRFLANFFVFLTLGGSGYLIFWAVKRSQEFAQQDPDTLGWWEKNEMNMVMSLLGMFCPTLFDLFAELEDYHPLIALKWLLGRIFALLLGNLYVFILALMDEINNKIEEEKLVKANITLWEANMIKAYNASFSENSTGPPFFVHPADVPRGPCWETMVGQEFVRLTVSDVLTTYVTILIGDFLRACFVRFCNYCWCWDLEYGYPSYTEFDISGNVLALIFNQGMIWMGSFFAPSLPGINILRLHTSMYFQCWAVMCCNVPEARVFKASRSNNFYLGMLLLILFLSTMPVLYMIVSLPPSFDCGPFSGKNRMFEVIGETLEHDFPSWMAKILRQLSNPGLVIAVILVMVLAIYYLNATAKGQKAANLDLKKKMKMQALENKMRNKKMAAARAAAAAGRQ
UniProt O75838: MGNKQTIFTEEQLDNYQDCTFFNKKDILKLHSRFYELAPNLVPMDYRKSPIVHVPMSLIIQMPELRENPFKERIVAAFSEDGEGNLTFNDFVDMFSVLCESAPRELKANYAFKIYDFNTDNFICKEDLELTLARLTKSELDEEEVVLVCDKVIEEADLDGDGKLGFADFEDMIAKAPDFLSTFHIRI

What was measured:
Test in all cases: FRET or BRET; acceptor photobleaching FRET in fixed, co-transfected CHO-K1 cells; GFP/EGFP fusion as donor, V5 fusion stained with anti-V5 and goat anti-mouse Alexa Fluor 555 as acceptor
LHFPL5-GFP = biological target: T1, LHFPL5-GFP (UniProt Q8TAF8)
T1 sequence: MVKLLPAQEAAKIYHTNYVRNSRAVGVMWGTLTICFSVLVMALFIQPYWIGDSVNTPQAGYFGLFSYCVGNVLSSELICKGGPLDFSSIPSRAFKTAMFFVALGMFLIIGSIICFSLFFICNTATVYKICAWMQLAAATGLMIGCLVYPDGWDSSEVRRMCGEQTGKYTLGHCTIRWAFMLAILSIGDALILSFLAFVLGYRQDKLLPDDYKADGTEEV

[1] = biological target: TMC1-EGFP (EGFP tagged human full length TMC1) (human) (UniProt Q8TDI8)
TMC2-EGFP = biological target: T2, TMC2-EGFP (UniProt Q8TDI7)
T2 sequence: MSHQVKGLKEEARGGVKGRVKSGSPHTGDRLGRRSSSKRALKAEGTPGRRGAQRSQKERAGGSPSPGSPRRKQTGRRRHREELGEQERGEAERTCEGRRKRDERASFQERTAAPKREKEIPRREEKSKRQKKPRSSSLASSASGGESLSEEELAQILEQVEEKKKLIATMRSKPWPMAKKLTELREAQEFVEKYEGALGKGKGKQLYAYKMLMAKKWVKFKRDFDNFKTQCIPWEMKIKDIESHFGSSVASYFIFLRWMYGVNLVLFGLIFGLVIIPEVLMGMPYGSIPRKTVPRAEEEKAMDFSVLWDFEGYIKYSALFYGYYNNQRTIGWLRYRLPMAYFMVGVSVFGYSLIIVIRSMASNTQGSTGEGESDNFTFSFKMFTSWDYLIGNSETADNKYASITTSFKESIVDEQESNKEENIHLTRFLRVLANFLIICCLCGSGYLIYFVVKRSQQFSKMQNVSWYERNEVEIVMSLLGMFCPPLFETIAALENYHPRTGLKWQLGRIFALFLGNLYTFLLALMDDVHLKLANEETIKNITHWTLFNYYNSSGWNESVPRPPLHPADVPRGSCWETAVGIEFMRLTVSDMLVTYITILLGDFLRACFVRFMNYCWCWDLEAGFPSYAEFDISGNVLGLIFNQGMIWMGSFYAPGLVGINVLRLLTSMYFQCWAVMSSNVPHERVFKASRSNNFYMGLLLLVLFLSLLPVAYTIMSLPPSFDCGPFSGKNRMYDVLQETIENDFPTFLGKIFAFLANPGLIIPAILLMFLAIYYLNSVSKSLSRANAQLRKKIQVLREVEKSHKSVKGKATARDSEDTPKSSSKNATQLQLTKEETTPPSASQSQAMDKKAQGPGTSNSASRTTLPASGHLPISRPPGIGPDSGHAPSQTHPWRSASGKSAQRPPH

TMIE-GFP = biological target: T3, TMIE-GFP (UniProt Q8NEW7)
T3 sequence: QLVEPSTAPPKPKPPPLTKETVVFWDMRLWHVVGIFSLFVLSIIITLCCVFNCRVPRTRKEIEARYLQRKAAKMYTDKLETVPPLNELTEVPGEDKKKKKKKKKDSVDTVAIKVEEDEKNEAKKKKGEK

binding (LHFPL5-GFP) | binding [1] | binding (TMC2-EGFP) | binding (TMIE-GFP) | Substance
no binding | binds | binds | no binding | CIB2-V5 (calcium and integrin-binding protein 2, V5 tagged, wild type) (from UniProt O75838 1-187)
– | binds | – | – | CIB2-V5 p.I123T (from UniProt O75838 1-187)
– | binds | – | – | CIB2-V5 p.R66W (from UniProt O75838 1-187)
– | binds | – | – | CIB2-V5 p.R186W (from UniProt O75838 1-187)
